Results taken from patent US12060433B2, “CD73 inhibitor and A2A/A2B adenosine receptor inhibitor combination therapy” (Incyte Corporation, priority 2020, dated 2024).

What was measured:
[1] = target: T1, cell surface CD73 on A375 cells (Homo sapiens, UniProt P21589); experiment: Binding to cell surface CD73 by flow cytometry (GMFI), A375 cells; assay type: cell-based; settings: moderate levels of surface CD73
T1 construct: endogenous in cells; host or cells: A375
T1 sequence (P21589 27-549): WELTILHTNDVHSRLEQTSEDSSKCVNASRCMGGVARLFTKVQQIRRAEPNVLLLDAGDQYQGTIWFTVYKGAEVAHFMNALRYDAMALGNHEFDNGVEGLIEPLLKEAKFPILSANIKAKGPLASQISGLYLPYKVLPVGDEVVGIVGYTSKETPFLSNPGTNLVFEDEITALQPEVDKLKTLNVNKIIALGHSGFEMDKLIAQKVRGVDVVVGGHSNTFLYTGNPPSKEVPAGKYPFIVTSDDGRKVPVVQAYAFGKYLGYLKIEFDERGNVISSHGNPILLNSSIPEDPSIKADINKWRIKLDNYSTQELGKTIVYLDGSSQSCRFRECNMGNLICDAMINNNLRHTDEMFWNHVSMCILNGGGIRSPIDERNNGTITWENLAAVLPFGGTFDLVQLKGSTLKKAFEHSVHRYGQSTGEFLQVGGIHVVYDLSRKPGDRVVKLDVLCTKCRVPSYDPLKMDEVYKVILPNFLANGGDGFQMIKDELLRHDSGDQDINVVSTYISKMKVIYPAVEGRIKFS
Experimental: (§1) To test the binding of humanized and non-humanized CL25 clones to cell surface CD73, MDA-MB-231 or A375 cells were washed and added to 96-well plates at 5×10^4 cells/well. The cells were stained with the indicated concentration of antibodies for 30 minutes on ice (FIG. 2A and FIG. 2B). Next, the cells were washed and stained using goat anti-mouse secondary conjugated to phycoerythrin (PE) for 30 minutes on ice. The cells were then washed and analyzed by flow cytometry. Geometric mean fluorescence intensity (GMFI) of CD73 staining was graphed (FIG. 2A and FIG. 2B).

[2] = target: T2, human CD73 (SEQ ID NO: 70) (Homo sapiens, UniProt P21589); experiment: SPR (Biacore 8K) binding affinity and kinetics to human CD73
T2 construct: purchased BPS Bioscience
T2 sequence (P21589 27-549): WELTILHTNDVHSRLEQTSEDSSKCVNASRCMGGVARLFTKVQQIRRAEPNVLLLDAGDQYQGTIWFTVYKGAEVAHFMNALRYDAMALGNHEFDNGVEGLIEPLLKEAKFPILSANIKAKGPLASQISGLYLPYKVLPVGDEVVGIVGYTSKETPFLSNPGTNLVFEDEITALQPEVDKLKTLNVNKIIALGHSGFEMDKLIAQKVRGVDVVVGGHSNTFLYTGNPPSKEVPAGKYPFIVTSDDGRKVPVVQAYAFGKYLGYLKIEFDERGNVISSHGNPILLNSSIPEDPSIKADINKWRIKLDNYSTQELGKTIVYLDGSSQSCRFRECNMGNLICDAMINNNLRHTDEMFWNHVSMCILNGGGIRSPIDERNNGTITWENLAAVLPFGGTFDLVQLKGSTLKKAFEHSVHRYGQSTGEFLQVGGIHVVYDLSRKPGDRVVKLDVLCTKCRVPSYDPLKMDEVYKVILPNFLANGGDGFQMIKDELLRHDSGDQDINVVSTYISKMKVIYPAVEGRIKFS
Experimental: The SPR running buffer (10 mM HEPES, 150 mM NaCl, 3 mM EDTA and 0.05% v/v Surfactant P20, pH 7.4) was prepared from 10×HBS-EP Buffer (GE Healthcare). Anti-human Fc antibodies (GE Healthcare) were immobilized via amine coupling on all sixteen flow cells of an S series sensor chip CM5 (GE Healthcare). The immobilization levels were ˜9000 RU for all flow cells. The desired capturing level of anti-CD73 antibody was achieved by flowing appropriate concentration of anti-CD73 antibody through the active flow cell of each channel. The non-cleavable ADP analogue APCP (adenosine-5′-(α,β-methylene) diphosphate) with the presence of Zn^2+ can be used to shift the CD73 conformational equilibrium from open towards closed. Therefore, recombinant CD73 was incubated with SPR running buffer in the presence of 100 μM APCP and 10 μM ZnCl2 (closed SPR running buffer) to study the binding of anti-CD73 antibody to the CD73 in the closed conformation. To achieve this, the ABA injection feature in Biacore 8K was used. For open conformation, the ABA injection sequence started with 60 seconds injection of running buffer. Then, CD73 3-fold serial dilution concentration series prepared from CD73 stock (BPS Bioscience) and running buffer were injected for 180 seconds immediately followed by running buffer for 240 seconds. For closed conformation, the normal SPR running buffer was replaced by closed SPR running buffer. Surface was regenerated with 30 seconds injection of 3 M MgCl2. […] Binding affinities and kinetic association and dissociation rate constants to human, cynomolgus, and mouse CD73 in either open or closed conformations are shown in Table 8 below. The results in Table 8 ensure cynomolgus pharmacokinetic data will reflect human pharmacokinetic data.
Binding affinities and kinetic association and dissociation rate constants to human, cynomolgus, and mouse CD73 in either open or closed conformations are shown in Table 9 below.

[3] = target: T3, cell surface CD73 on MDA-MB-231 cells (Homo sapiens, UniProt P21589); experiment: Binding to cell surface CD73 by flow cytometry (GMFI), MDA-MB-231 cells; assay type: cell-based; settings: high levels of surface CD73
T3 construct: endogenous in cells; host or cells: MDA-MB-231
T3 sequence (P21589 27-549): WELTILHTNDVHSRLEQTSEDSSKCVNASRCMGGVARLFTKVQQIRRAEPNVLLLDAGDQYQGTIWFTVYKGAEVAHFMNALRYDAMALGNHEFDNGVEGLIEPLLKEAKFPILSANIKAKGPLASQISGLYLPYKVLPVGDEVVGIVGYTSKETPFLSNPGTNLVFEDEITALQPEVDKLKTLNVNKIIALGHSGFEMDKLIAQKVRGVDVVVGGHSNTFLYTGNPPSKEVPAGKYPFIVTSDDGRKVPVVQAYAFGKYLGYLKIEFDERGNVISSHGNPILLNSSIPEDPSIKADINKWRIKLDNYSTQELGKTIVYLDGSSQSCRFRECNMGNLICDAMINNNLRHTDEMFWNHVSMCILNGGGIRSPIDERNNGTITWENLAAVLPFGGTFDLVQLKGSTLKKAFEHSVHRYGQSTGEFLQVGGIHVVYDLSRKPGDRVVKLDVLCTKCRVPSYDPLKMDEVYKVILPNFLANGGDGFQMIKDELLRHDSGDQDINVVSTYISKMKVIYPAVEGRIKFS
Experimental: as §1
Cells were stained with the indicated concentration of antibodies for 1 hour on ice. Cells were then washed and stained goat anti-mouse secondary conjugated to PE for 30 minute on ice. Cells were then washed and analyzed by flow cytometry. The GMFI of CD73 staining is graphed (FIG. 13).

[4] = target: T4, recombinant human CD73 (rhuCD73) (SEQ ID NO:70) (Homo sapiens, UniProt P21589); experiment: Soluble CD73 inhibition (AMP-Glo); assay type: biochemical; settings: 0.008 μg/mL rhuCD73, 100 μM AMP
T4 sequence (P21589 27-549): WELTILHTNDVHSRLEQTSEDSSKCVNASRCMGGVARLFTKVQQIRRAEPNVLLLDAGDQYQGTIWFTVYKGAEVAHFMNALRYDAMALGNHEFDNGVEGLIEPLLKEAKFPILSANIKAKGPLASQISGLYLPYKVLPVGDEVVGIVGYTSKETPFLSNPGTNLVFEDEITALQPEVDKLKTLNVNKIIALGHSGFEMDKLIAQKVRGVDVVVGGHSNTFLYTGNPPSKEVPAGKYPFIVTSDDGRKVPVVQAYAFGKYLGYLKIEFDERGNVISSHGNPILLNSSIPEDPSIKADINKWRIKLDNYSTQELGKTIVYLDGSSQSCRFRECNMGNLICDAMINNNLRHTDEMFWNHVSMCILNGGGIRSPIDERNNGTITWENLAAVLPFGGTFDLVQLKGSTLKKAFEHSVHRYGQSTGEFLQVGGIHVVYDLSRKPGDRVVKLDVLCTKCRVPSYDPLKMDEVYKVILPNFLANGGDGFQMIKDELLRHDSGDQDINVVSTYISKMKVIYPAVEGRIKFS
Experimental: To measure the ability of the CD73 antibodies to inhibit CD73 activity of recombinant protein, recombinant human CD73 (rhuCD73) (SEQ ID NO:70) was added to 96-well plates at a final concentration of 0.008 μg/mL with the indicated concentration of antibodies (FIG. 4) or adenosine 5′-[α,β-methylene]diphosphate (APCP) and incubated at 37° C. 5% CO2 for 30 minutes. After the 30 minute incubation, AMP was added to a final concentration of 100 μM and the reactions were incubated an additional 3 hours at 37° C. 5% CO2. 25 μL of supernatant was transferred into new 96-well plates. The AMP-Glo Assay was used according to the manufacturer's instructions. RLU is a directly correlated with the AMP concentration in this assay. Results are depicted in FIG. 4.
Results are depicted in FIG. 9.

[5] = human CD73, open conformation, 25° C.

B1: HzCL25: humanized version of CL25, IgG1/kappa N297A, VH SEQ ID NO:22, VL SEQ ID NO:23; heavy chain SEQ ID NO:24, light chain SEQ ID NO:25 (antibody)
heavy: EVQLVQSGAEVKKPGESLKISCKGSGYTFTSYGLSWVRQMPGKGLEWMGEIYPGSGNTYYNEKFKGQVTISADKSISTAYLQWSSLKASDTAMYYCARYDYLGSSYGFDYWGAGTTVTVSSASTKGPSVFPLAPSSKSTSGGTAALGCLVKDYFPEPVTVSWNSGALTSGVHTFPAVLQSSGLYSLSSVVTVPSSSLGTQTYICNVNHKPSNTKVDKRV[human IgG1 Fc with changes cut from this listing]
light: DIVMTQSPDSLAVSLGERATINCKASQDVSTAVAWYQQKPGQPPKLLIYSASYRYSGVPDRFSGSGSGTDFTLTISSLQAEDVAVYYCQQHYNTPYTFGGGTKLEIKRTVAAPSVFIFPPSDEQLKSGTASVVCLLNNFYPREAKVQWKVDNALQSGNSQESVTEQDSKDSTYSLSSTLTLSKADYEKHKVYACEVTHQGLSSPVTKSFNRGEC
Question: How did the “cell binding (GMFI)” value [1] turn out when B1 was run?
Answer: The value was “high potency binding”.

Question: What about the Kd ([2]; human CD73, as stated in the description) of the same molecule?
Answer: Its Kd is ≤ 0.5 nM.

Question: What about the ka [2, 5] of the same molecule?
Answer: Its ka is >1e+06 M⁻¹ s⁻¹.

Question: What about the kd [2, 5] of the same molecule?
Answer: Its kd is 0.000449 s⁻¹.

Question: And the “cell binding (GMFI)” value [3]?
Answer: Its value is “high potency binding”.

Question: And the “hook-effect in inhibition of recombinant CD73” value [4]?
Answer: The value was “no hook-effect”.

Question: And the “inhibition of recombinant CD73” value [4]?
Answer: Its value is “high potency”.
